From PubChem BioAssay AID1347165 (National Center for Advancing Translational Sciences (NCATS), 2019)
“And” between values parts separate entries of the source, which are not always exact repeats. Identical values can stand only once. Screen size: about 220,000 compounds; about 5,700 (2.6%) were called active. Inconclusive means that the source gave no clear call. Such entries were picked first, then a sample of the others. Calls come from the whole dose curve; as a rule, active = well fitted inhibition curve with a large enough effect; inconclusive = small, poorly fitted or top-dose-only effect; inactive = no such curve, though single readings can be large or run the other way. Where the call is inconclusive, the potency comes from a doubtful curve fit.

target: Lysine-specific demethylase 5B (Homo sapiens) (UniProt Q9UGL1); assay: Primary screen for KDM5B Histone Demethylases FDH-coupled qHTS; conditions: FDH-coupled NADH fluorescence (FDH is formaldehyde dehydrogenase); activity change, negative = inhibition: at 57.7 µM (top of the series) unless noted; note: nearly all actives have a fitted effect of over 70% in size; for activity change, negative = inhibition: 0% is about no effect
UniProt Q9UGL1, sequence (Q9UGL1 whole entry, looked up): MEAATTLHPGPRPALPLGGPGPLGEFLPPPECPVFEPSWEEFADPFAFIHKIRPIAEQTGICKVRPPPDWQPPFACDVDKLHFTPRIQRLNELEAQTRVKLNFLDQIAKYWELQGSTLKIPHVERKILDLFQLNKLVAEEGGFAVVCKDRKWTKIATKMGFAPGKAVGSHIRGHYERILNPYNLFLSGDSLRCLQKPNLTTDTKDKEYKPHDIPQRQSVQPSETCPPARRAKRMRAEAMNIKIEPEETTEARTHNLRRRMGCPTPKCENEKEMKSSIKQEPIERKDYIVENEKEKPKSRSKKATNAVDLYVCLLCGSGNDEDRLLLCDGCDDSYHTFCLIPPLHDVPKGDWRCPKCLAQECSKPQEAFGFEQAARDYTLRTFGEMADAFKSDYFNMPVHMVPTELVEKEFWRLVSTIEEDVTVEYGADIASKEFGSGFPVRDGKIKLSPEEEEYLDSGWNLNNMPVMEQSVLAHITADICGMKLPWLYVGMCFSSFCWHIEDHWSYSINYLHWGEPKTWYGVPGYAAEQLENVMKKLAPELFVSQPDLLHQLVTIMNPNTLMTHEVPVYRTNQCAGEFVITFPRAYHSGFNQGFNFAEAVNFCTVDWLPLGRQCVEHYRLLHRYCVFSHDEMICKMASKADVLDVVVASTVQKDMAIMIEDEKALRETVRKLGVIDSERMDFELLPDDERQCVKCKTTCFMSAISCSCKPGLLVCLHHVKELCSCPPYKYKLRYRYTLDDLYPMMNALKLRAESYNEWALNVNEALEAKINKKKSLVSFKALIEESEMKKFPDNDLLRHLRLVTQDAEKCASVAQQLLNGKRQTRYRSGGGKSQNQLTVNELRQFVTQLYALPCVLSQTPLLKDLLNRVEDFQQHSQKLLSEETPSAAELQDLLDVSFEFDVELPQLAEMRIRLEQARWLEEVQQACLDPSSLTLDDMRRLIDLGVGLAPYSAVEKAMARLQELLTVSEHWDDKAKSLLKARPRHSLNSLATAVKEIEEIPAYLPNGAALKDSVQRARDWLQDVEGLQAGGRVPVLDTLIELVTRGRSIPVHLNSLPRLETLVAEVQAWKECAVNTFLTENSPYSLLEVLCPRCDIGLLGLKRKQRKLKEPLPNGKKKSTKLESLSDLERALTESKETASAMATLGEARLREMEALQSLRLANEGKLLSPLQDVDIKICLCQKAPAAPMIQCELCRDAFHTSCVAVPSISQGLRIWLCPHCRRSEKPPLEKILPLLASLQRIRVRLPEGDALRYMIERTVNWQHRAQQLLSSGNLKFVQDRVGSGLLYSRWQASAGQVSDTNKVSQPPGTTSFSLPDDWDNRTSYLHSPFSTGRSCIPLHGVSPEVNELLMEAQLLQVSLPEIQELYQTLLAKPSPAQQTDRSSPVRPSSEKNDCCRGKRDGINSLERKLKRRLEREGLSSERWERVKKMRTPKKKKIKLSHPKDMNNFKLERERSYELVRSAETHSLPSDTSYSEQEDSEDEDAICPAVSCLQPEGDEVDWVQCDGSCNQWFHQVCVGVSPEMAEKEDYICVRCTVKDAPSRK
Method in brief: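 Coupled FDH/NAD⁺ fluorescence readout. KDM5BΔAP 200 nM final; compound titration, 10 min RT preincubation; substrate mix 12.5 µM H3K4me3, 25 µM 2-OG, 50 µM Fe(II), 100 µM ascorbate, 0.25 mM NAD⁺, 0.25 U/mL FDH; ΔRFU over 30 min.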
Potency is the fitted concentration of half-maximal effect; tags give direction and shape of the fitted curve.

Structure (SMILES) | activity change, negative = inhibition | Potency
COc1cc(C(=O)NC2CC2)ccc1C | inactive: 27.8% | 
Cc1ccc(C(NC(=O)CSc2nnnn2C)c2cccs2)cc1 (stereo not given) | inactive: 9.31% | 
CN(Cc1ccccc1)S(=O)(=O)c1nnc(NC(=O)c2ccccc2Cl)s1 | inconclusive: -38.1% [inhibitor] | 
CC(=O)Nc1cccc(-c2cc(C3=CCOCC3)c3cncn3c2)c1 |  | active: 39.8 µM
O=C(NCCc1noc(-c2cccnc2)n1)C1(c2ccccc2)CC1 | inactive: -4.98% | 
COc1cccc(C(=O)N2CCN(c3cc(-c4cccs4)[nH]n3)CC2)c1OC |  | inconclusive: 31.6 µM [inhibitor, partial curve, poor fit]
O=C(N/N=C/c1cc([N+](=O)[O-])cc(Br)c1O)C12CC3CCC(CC(C3)C1)C2 |  | inconclusive: 20 µM [inhibitor, partial curve, poor fit]
N#Cc1c(N)n[nH]c1CCCNC(=O)c1cc(-c2cccs2)nc2ccccc12 |  | inconclusive: 31.6 µM [inhibitor, partial curve, poor fit]
CCOC(=O)c1cc2c(=O)n3ccccc3nc2n(CCOC)c1=NC(=O)c1cc2ccccc2o1 |  | inconclusive: 14.1 µM [inhibitor, partial curve, poor fit]
CC(=O)Nc1ccc(NC(=O)c2nccnc2C(=O)O)cn1 |  | inconclusive: 35.5 µM [inhibitor, partial curve, poor fit]
COC(=O)CNC(=O)N1CC[C@H]2C(=O)NCCCCCCN(Cc3ccncc3)[C@@H]2C1 |  | inconclusive: 17.8 µM [inhibitor, single point]
O=C(NC1CCCCCC1)c1ccc2c(Cl)c3c(nc2c1)CCCC3 | inactive: 3.36% | 
Cc1cc(OCCn2c(CNC=O)nc3ccccc32)ccc1Cl | inactive: 24.6% | 
c1cc(CNC2CC2)c2cc[nH]c2c1 |  | inconclusive: 31.6 µM [inhibitor, partial curve, poor fit]
O=C(Nc1ccc2oc(-c3ccncc3)nc2c1)c1ccc(Cl)cc1Cl |  | inconclusive: 25.1 µM [inhibitor, partial curve, poor fit]
CC(C)(C)C1CCc2c(sc(NC(=O)c3ccccc3F)c2C(=O)NCc2ccco2)C1 (stereo not given) |  | inconclusive: 1.58 µM [inhibitor, partial curve, poor fit]
CN(CC(=O)NC1(C#N)CCCCC1)c1cccc(C#N)c1 |  | inconclusive: 15.8 µM [inhibitor, partial curve, poor fit]
COc1ccc(C(=O)Nc2nc3c(s2)C[C@@H]2[C@](C)(CO)[C@H](O)CC[C@@]2(C)[C@@H]3CC(=O)NCc2ccco2)cc1 |  | inconclusive: 22.4 µM [inhibitor, partial curve, poor fit]
O=C(NC1CCN(c2nc3ncccc3o2)CC1)C1CC1 |  | active: 31.6 µM and active: 28.2 µM
NCC1CCN(Cc2ccccc2)C1 (stereo not given) |  | inconclusive: 20 µM [inhibitor, partial curve, poor fit]
COc1ccc2c(C)c(CCC(=O)N3CCN(Cc4ccccc4)CC3)c(=O)oc2c1 |  | inconclusive: 31.6 µM [inhibitor, partial curve, poor fit]
Cc1nc(-c2cccnc2)sc1CCNS(=O)(=O)c1ccc(Cl)s1 |  | inconclusive: 15.8 µM [inhibitor, partial curve, poor fit]

Structure (SMILES) | activity change, negative = inhibition | Potency
CC(=O)c1cccc(NC(=O)c2ccc(Cl)c(S(=O)(=O)N3CCOCC3)c2)c1 | inactive: -9.62% | 
COc1ccccc1-c1nc(C(=O)NCc2cccnc2)n2ccncc12 |  | active: 89.1 µM and active: 79.4 µM
Clc1ccc2c(N/N=C/c3cccs3)ccnc2c1 |  | inconclusive: 39.8 µM [inhibitor, single point]
Cc1cnc(C(=O)N2CCC(C(=O)N3CCCCCCNC(=O)CC3)CC2)cn1 |  | inconclusive: 20 µM [inhibitor, partial curve, poor fit]
COc1ccc(-c2cc(C(F)(F)F)nc(S(=O)(=O)CCC(=O)Nc3ccccc3F)n2)cc1 |  | inconclusive: 31.6 µM [inhibitor, partial curve, poor fit]
COc1ccc(CN2Cc3[nH]cnc3C[C@H]2C(=O)NCc2ccccc2)c2ccccc12 |  | active: 39.8 µM
CCc1ccccc1N1CC(c2nc3ccccc3n2CCOc2ccc(Cl)c(C)c2)CC1=O (stereo not given) |  | inconclusive: 8.91 µM [inhibitor, partial curve, poor fit]
CCc1noc(-c2nc(-c3ccc(OC)cc3)no2)n1 | inactive: 2.15% | 
CN(C)c1ccc(C(=O)Nc2c(C(=O)NC(C)(C)C)oc3ccccc23)cc1 |  | inconclusive: 11.2 µM [inhibitor, partial curve, poor fit]
Cc1noc(C)c1Cn1cc2c3c(cccc31)[C@H](CC(C)C)N[C@H](C(=O)NC1CCC1)C2 |  | inconclusive: 25.1 µM [inhibitor, partial curve, poor fit]
O=C(c1cccn1-c1nnc(N2CCCCC2)s1)N1CCN(c2ccc(Cl)cc2)CC1 |  | inconclusive: 35.5 µM [inhibitor, single point]
Cc1noc(C)c1Cc1ccc(C(=O)N2CCCCCCN(C)C(=O)[C@@H]3CCC[C@@H]32)o1 | inactive: -15.9% | 
CCOC(=O)CSc1nc(-c2ccc(F)cc2)cc(C(F)(F)F)c1C#N |  | inconclusive: 35.5 µM [inhibitor, single point]
CCc1nc2nc(-c3cccc(OC)c3)cc(=O)n2[nH]1 | inactive: -9.97% | 
CCO[C@H]1CN(C(=O)CCc2ccc(-c3ccc(Cl)cc3)[nH]2)C[C@@H]1O |  | active: 28.2 µM
O=C(c1cccc(Cl)c1)N1CCN(C(=O)c2nnn3c2COC(c2ccc(Cl)cc2)C3)CC1 (stereo not given) | inactive: -8.98% | 
CC(=O)c1cccc(NC(=O)CCc2nc3cccnc3n2Cc2cccs2)c1 |  | inconclusive: 28.2 µM [inhibitor, single point]
O=C(c1cccc(Cl)c1)N1CCC2(CC1)NCc1ccccc1NC2=O |  | inconclusive: 56.2 µM [inhibitor, partial curve, poor fit]
COCCC1(NC(=O)C(C)c2ccccc2)CCN(S(C)(=O)=O)CC1 (stereo not given) | inactive: -12.9% | 
Nc1nccnc1C(=O)NCCCC1CCCC1 |  | inconclusive: 25.1 µM [inhibitor, partial curve, poor fit]
CCc1nc2c(c(-c3ccc(Cl)cc3)n1)CN(C(=O)Nc1ccc(Cl)cc1)CC2 |  | inconclusive: 31.6 µM [inhibitor, partial curve, poor fit]
O=C(NCCc1cnc[nH]1)c1cn(CCC2CCCCN2)nn1 (stereo not given) |  | inconclusive: 5.01 µM [inhibitor, partial curve]

Structure (SMILES) | activity change, negative = inhibition | Potency
CCCNC(=O)c1cnn2c(C(F)F)cc(-c3ccccc3)nc12 |  | inconclusive: 39.8 µM [inhibitor, partial curve, poor fit]
COc1ccc(CCNc2oc(COc3cccc(C)c3)nc2C#N)cc1OC | inconclusive: -32.4% [inhibitor] | 
CC(C)c1ccc(C(=O)N2CCC(N3CC4CC(C3)[C@H]3CCCC(=O)N3C4)CC2)cc1 (stereo not given in full) | inactive: -19.1% | 
CCN1CCc2c(sc(-n3cccc3)c2C(C)NC(=O)Nc2cc(Cl)c(OC)cc2OC)C1 (stereo not given) |  | inconclusive: 25.1 µM [inhibitor, single point]
O=C(NCc1ccccc1)[C@@H]1COCC(=O)N1Cc1ccc(F)cc1 |  | inconclusive: 22.4 µM [inhibitor, single point]
CC(=O)Nc1cc(-c2ccc(=O)n(CC(=O)Nc3c(C)cc(C)cc3C)n2)ccc1C | inactive: 2.69% | 
COc1ccc(-c2ccc3c(c2)C(=O)N2CCN(C(=O)NC4CCCCC4)C[C@@H]2C(=O)N3)cc1 |  | inconclusive: 25.1 µM [inhibitor, single point]
CC(C)(C)OC(=O)N1CCC(c2c(C(=O)NCc3ccccc3)cnn2-c2ccc(F)cc2)CC1 | inactive: 18.3% | 
COc1ccc(Br)c(C(=O)Nc2ccc3oc(=O)ccc3c2)c1 |  | inconclusive: 3.55 µM [inhibitor, full curve, poor fit]
CCOC(=O)c1c(C)oc2c1cc(NS(=O)(=O)c1ccc(C)cc1)c1ccccc12 |  | inconclusive: 17.8 µM [inhibitor, partial curve, poor fit]
CCC1CCc2c(sc(NC(=O)COCC(=O)O)c2C(=O)NCc2ccc(C)cc2)C1 (stereo not given) | inactive: -14.9% | 
CC(=O)Nc1ccc(CN2C[C@H](O)C[C@H]2c2nc(-c3ccc(OC(F)(F)F)cc3)no2)cc1 |  | inconclusive: 35.5 µM [inhibitor, single point]
O=C(COC(=O)COc1ccc2ccccc2c1)Nc1ccccc1 | inactive: 7.21% | 
COc1ccccc1Cn1cnc2cccnc21 | inactive: -7.78% [at 86.2 µM] | 
O=C(c1cccnc1)N1CCC(N2CC3CC(C2)[C@H]2CCCC(=O)N2C3)CC1 (stereo not given in full) |  | inconclusive: 11.2 µM [inhibitor, partial curve]
Cc1cccc2c(C(=O)O)cc(-c3ccccc3)nc12 |  | inconclusive: 22.4 µM [inhibitor, single point]
O=C(Cc1ccccc1)N1CCC2(CC1)CN(c1ncccn1)CC2CO (stereo not given) |  | active: 22.4 µM
COc1cccc(C2CC(=O)Nc3nc(N)sc32)c1OCc1ccc(F)cc1 (stereo not given) |  | inconclusive: 22.4 µM [inhibitor, partial curve, poor fit]
O=C(NCc1ccccc1Cl)C1CCCN(C(=O)c2cnn(-c3ccc(F)cc3)c2-n2cccc2)C1 (stereo not given) |  | inconclusive: 2.82 µM [inhibitor, full curve, poor fit]
CCOc1ccccc1CN1CCC2(CCN(C(=O)OC)CC2)Oc2ccccc21 |  | inconclusive: 15.8 µM [inhibitor, partial curve]
CN1CC(=O)N(C2CCNC2)Cc2c(NC3CCOC3)ncnc21 (stereo not given) |  | inconclusive: 56.2 µM [inhibitor, partial curve]
